Results as given in PubChem BioAssay AID881 (National Center for Advancing Translational Sciences (NCATS), 2007).
Several values for one entry are separate records, joined by “and”; a condition that tells them apart may be missing. Equal values may be shown once. Hit rate of the full screen: of about 110,000 compounds, about 610 (0.55%) were called active. This list was built around the results that the source calls inconclusive (neither active nor inactive); the mix of calls is not that of the screen. The call rests on the fitted dose curve; in most records, active means well fitted inhibition curve with a large enough effect; inconclusive means small, poorly fitted or top-dose-only effect; inactive means no such curve, though single readings can be large or run the other way. Potencies beside an inconclusive call are fits to weak or partial responses and may not hold up.

Target: Polyunsaturated fatty acid lipoxygenase ALOX15B (Homo sapiens) (UniProt O15296)
Experiment: qHTS Assay for Inhibitors of 15-hLO-2 (15-human lipoxygenase 2); further: nearly all actives have a fitted effect of over 60% in size
Settings: purified 15hLO-2, xylenol orange hydroperoxide absorbance; activity change, negative = inhibition: at 57.1 µM (top of the series) unless noted
How it was run: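 Purified human 15hLO-2 (50 nM) preincubated 15 min with compound, then 45 uM arachidonic acid for 90 min at RT in 25 mM Hepes pH 7.5, 0.01% Triton X-100. Hydroperoxide detected by Fe-xylenol orange; 573/405 nm absorbance ratio.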
On the % scale 0 is the no-effect control and ±100 the full control effect; potency means the concentration at half of the fitted maximal effect; tags describe the fitted curve by direction and shape.

Chain of UniProt O15296 (O15296 whole entry, looked up): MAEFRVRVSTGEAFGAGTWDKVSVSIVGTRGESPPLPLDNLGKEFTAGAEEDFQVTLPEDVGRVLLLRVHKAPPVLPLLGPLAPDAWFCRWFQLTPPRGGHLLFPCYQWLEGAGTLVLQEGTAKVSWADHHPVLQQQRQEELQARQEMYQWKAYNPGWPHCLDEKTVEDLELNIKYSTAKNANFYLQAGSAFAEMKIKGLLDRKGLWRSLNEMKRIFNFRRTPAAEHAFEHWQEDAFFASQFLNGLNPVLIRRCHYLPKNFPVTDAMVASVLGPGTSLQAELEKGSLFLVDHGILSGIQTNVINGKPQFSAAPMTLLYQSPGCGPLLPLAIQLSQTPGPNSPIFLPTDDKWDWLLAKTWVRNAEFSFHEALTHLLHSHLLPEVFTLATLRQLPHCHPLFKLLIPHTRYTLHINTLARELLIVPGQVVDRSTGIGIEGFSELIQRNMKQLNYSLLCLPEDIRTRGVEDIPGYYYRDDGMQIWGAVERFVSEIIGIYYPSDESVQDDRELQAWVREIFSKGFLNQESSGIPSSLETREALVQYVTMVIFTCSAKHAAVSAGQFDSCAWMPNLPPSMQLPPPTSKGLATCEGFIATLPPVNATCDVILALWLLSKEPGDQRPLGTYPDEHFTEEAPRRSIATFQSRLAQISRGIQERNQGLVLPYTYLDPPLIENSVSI

Which Potency does the source give for CCN(CC)c1ccc(SS(=O)(=O)O)cc1 here?
The Potency was inconclusive: 3.98 µM [inhibitor, full curve].

How did the Potency turn out when CN1C(=O)N(C)C2(c3ccccc3)Nn3c(s/c(=C/c4ccco4)c3=O)=NC12c1ccccc1 (stereo unspecified) was run?
Its Potency is “inactive”.

With Cc1cc(SCCC(=O)O)nc2ccccc12 as the molecule, how does the Potency read?
Its Potency is “inactive”.

With CCNc1ncc2nc(-c3ccccc3)c(=O)n(C3CC3)c2n1 as the molecule, how does the Potency read?
The Potency was inconclusive: 6.31 µM [inhibitor, single point].

With O=C(c1ccc(Cl)cc1)c1oc2ccccc2c1CS(=O)c1ccc(Cl)cc1 (stereo unspecified) as the molecule, how does the Potency read?
The Potency was inconclusive: 10 µM [inhibitor, partial curve].

With Cc1ccc(NC(=S)C2=C(O)c3sccc3N(C)S2(=O)=O)cc1 as the molecule, how does the Potency read?
Its Potency is inconclusive: 25.1 µM [inhibitor, single point].

For CC(C)C[C@H](N)c1nnc(S(=O)(=O)Cc2ccc(F)cc2)o1, which Potency is on record?
The Potency was inconclusive: 15.8 µM [inhibitor, partial curve].

For COc1ccc(NC(=O)Nc2cccs2)cc1OC, which Potency is on record?
The Potency was inconclusive: 15.8 µM [inhibitor, partial curve].

O=C1CC(c2ccc(O)c(O)c2)Oc2cc(O)cc(O)c21 (stereo unspecified) was tested. Which Potency did it give?
The Potency was inconclusive: 15.8 µM [inhibitor, partial curve, poor fit].

COc1cccc(Cn2c(=O)cnc3cnc(Nc4ccccc4)nc32)c1 was tested. Which Potency did it give?
The Potency was inconclusive: 31.6 µM [inhibitor, single point].

With COc1cc(OC)c(C2N(c3ccc(Cl)cc3)C(=O)C3CCCN32)cc1OC (stereo unspecified) as the molecule, how does the Potency read?
The Potency was “inactive”.

How did the Potency turn out when Nc1ccc(-c2nnc(-c3ccc(-c4ccccc4)cc3)o2)cc1 was run?
Its Potency is inconclusive: 25.1 µM [inhibitor, single point].

How did the Potency turn out when CN1/C(=C/C(=O)c2nc(S(C)(=O)=O)ncc2Cl)C(C)(C)c2ccccc21 was run?
The Potency was inconclusive: 25.1 µM [inhibitor, single point].

How did the Potency turn out when CC1CCN(c2nc3ccc(C(=O)N4CCN(Cc5ccc6c(c5)OCO6)CC4)cc3s2)CC1 was run?
The Potency was “inactive”.

Which Potency does the source give for CCNc1ccccc1 here?
Its Potency is “inactive”.

With CCC(C)(C(=O)NC1CCCC1)N(Cc1cccs1)C(=O)Cc1cccs1 (stereo unspecified) as the molecule, how does the Potency read?
The Potency was “inactive”.

Cc1ccc(-c2nn3c(C)nnc3s2)cc1NC(=O)c1ccc(-c2ccc(Cl)cc2Cl)o1 was tested. Which Potency did it give?
Its Potency is inconclusive: 39.8 µM [inhibitor, single point].

Which Potency does the source give for COCCSc1ccccc1C(=O)Nc1cccnc1 here?
The Potency was inconclusive: 25.1 µM [inhibitor, partial curve].

Oc1cc2c(cc1O)[C@H](c1ccccc1)CNCC2 was tested. Which Potency did it give?
The Potency was inconclusive: 15.8 µM [inhibitor, partial curve] and inconclusive: 12.6 µM [inhibitor, partial curve].

How did the Potency turn out when NC(=O)C1(N2CCCCC2)CCN(Cc2nc3ccccc3c(=O)[nH]2)CC1 was run?
Its Potency is inconclusive: 7.94 µM [inhibitor, single point].

For Cc1ccccc1C(=O)NNc1ccc([N+](=O)[O-])cc1, which Potency is on record?
The Potency was inconclusive: 2 µM [inhibitor, partial curve].

COc1ccccc1CC(Cc1nc2ccccc2[nH]1)c1nc2ccccc2[nH]1 (stereo unspecified) was tested. Which Potency did it give?
Its Potency is “inactive”.

CN(Cc1ccccc1)C(=O)[C@H](Cc1ccc2ccccc2c1)NC(=O)[C@@H]1CCCN1C(=O)Nc1ccccc1[N+](=O)[O-] was tested. Which activity change, negative = inhibition did it give?
The activity change, negative = inhibition was inactive: -6.47% [at 0.0915 µM].

For CCOC(=O)c1c(C)nc2sc3c(=O)n(-c4ccc(OC)cc4)nnc3c2c1-c1ccc(OC)cc1, which Potency is on record?
The Potency was “inactive”.

How did the Potency turn out when CC(C)COc1ccc(CSCCNC(=S)Nc2ccccc2)cc1 was run?
Its Potency is active: 25.1 µM.

For O=C(c1ccccc1)n1nnc2ccccc21, which Potency is on record?
The Potency was inconclusive: 15.8 µM [inhibitor, partial curve].

For Nc1nonc1C(=O)NCCNC(=O)c1cccs1, which Potency is on record?
The Potency was “inactive”.

CN(C)C(=O)N1CCCC(C(=O)NCCc2ccccc2)C1 (stereo unspecified) was tested. Which Potency did it give?
The Potency was inconclusive: 0.316 µM [inhibitor, partial curve].

Which Potency does the source give for O=C1C[C@@H](c2ccc(O)cc2)Oc2cc(O)cc(O)c21 here?
Its Potency is “inactive”.

O=C(CSc1nc2cc(Cl)ccc2s1)c1cc2ccccc2o1 was tested. Which Potency did it give?
The Potency was inconclusive: 15.8 µM [inhibitor, partial curve].

O=C(Nc1cccnc1)c1c(F)c(F)c(F)c(F)c1F was tested. Which Potency did it give?
The Potency was “inactive”.

CC1=C(/C=C/C(C)=C/C=C/C(C)=C\C=O)C(C)(C)CCC1 was tested. Which Potency did it give?
Its Potency is “inactive”.

COc1ccc(C(=O)NCc2ccccc2OC)c(OC)c1 was tested. Which Potency did it give?
Its Potency is “inactive”.

Which Potency does the source give for O=c1[nH]c2ccc(Cl)cc2c(-c2ccccc2)c1SC(=S)N1CCOCC1 here?
Its Potency is inconclusive: 31.6 µM [inhibitor, partial curve].

How did the Potency turn out when CCCn1cnc2c(c1=O)c1nc3ccccc3nc1n2Cc1ccccc1OC was run?
Its Potency is “inactive”.

For Oc1ccc([C@@H]2CNCc3sccc32)cc1O, which Potency is on record?
Its Potency is inconclusive: 12.6 µM [inhibitor, partial curve].

How did the Potency turn out when Cc1cccc(C(=O)NC(=S)Nc2ccc(Cc3ccncc3)cc2)c1 was run?
The Potency was inconclusive: 12.6 µM [inhibitor, partial curve].

With Cc1onc(-c2ccccc2Cl)c1C(=O)OCn1nnc2ccccc2c1=O as the molecule, how does the Potency read?
Its Potency is “inactive”.

For Oc1ccc2c(c1)OC(c1ccc(O)c(O)c1)C(O)C2 (stereo unspecified), which Potency is on record?
Its Potency is inconclusive: 10 µM [inhibitor, partial curve].

With O=C(O)c1ccc2c3c(ncnc13)-c1ccccc1C2=O as the molecule, how does the Potency read?
Its Potency is inconclusive: 15.8 µM [inhibitor, partial curve].

For O=[N+]([O-])CC(=Nc1ccc(Cl)cc1)N/N=C\c1oc(O)c2ccccc12, which Potency is on record?
Its Potency is inconclusive: 25.1 µM [inhibitor, single point].

Which Potency does the source give for O=C(NCCCN1CCCC1=O)C1CCN(S(=O)(=O)N2CCOCC2)CC1 here?
The Potency was “inactive”.

For CN1C(=O)/C(=C\c2cc(N=Nc3ccccc3)ccc2O)SC1=S, which Potency is on record?
The Potency was inconclusive: 15.8 µM [inhibitor, partial curve].

For CCn1c(Sc2ccc(N)cc2Cl)nc2ccccc21, which Potency is on record?
The Potency was inconclusive: 31.6 µM [inhibitor, single point].

How did the Potency turn out when CC(=O)Nc1ccccc1-c1nc2ccccc2nc1OCC(=O)c1ccc2ccccc2c1 was run?
The Potency was inconclusive: 39.8 µM [inhibitor, single point].

For Cc1ccc(NC(=O)c2ccc(NCC3CCCO3)c([N+](=O)[O-])c2)cc1Cl (stereo unspecified), which Potency is on record?
Its Potency is inconclusive: 12.6 µM [inhibitor, partial curve].

With Cc1cc(O)c(/C=N/Nc2ccc(Cl)cc2)c(=O)o1 as the molecule, how does the Potency read?
Its Potency is inconclusive: 2 µM [inhibitor, full curve, poor fit].

For COc1ccccc1NC(=O)c1ccccc1NC(=O)c1cc(Cl)ccc1NC(=O)c1ccco1, which Potency is on record?
Its Potency is inconclusive: 25.1 µM [inhibitor, single point].

Which Potency does the source give for CCC1=C/C(=C\c2ccc3c(c2)OCO3)C(=O)S1 here?
The Potency was inconclusive: 12.6 µM [inhibitor, partial curve].

For CC(/C=C/c1ccccc1)=N\NC(N)=S, which Potency is on record?
The Potency was inconclusive: 15.8 µM [inhibitor, partial curve].

For Cc1cc(O)ccc1-c1cnc2ccccc2n1, which Potency is on record?
The Potency was inconclusive: 15.8 µM [inhibitor, partial curve].

For Cc1ccc(NC(=S)NC(NC(=O)C(C)(C)C)C(Cl)(Cl)Cl)c(C)c1 (stereo unspecified), which Potency is on record?
Its Potency is inconclusive: 10 µM [inhibitor, partial curve].

With CCCCCCCCS(=O)C1CCS(=O)(=O)C1 (stereo unspecified) as the molecule, how does the Potency read?
The Potency was inconclusive: 15.8 µM [inhibitor, partial curve].

With Cc1ccc(S(=O)(=O)CC#CCOC(=O)c2ccc([N+](=O)[O-])cc2)cc1 as the molecule, how does the Potency read?
The Potency was inconclusive: 7.94 µM [inhibitor, partial curve].

O=C(O)c1c(Br)c(Br)c(Br)c(Br)c1C1c2ccc(O)cc2Oc2cc(O)ccc21 was tested. Which Potency did it give?
Its Potency is inconclusive: 0.794 µM [inhibitor, single point].

How did the Potency turn out when COC(=O)c1sccc1NC(=O)c1cc(-c2cccc(C)c2)nc2ccccc12 was run?
The Potency was inconclusive: 20 µM [inhibitor, partial curve].

For CNC(=O)[C@@]1(C)C=C[C@@H](Cc2ccccc2)N1C(C)=O, which Potency is on record?
Its Potency is “inactive”.

How did the Potency turn out when O=C(CSc1nnc(-c2ccco2)n1Cc1ccco1)NCc1ccccc1 was run?
Its Potency is “inactive”.

How did the Potency turn out when CCCCC(=O)Nc1ccc(C(=O)NN2C(=O)c3ccccc3C2=O)cc1 was run?
Its Potency is “inactive”.

With Cc1ccc(-c2nc3s/c(=C\c4ccco4)c(=O)n3n2)cc1 as the molecule, how does the Potency read?
Its Potency is inconclusive: 15.8 µM [inhibitor, partial curve].

With O=c1cc(-c2ccccc2)nc2nc(SCc3ccccc3)[nH]n12 as the molecule, how does the Potency read?
The Potency was “inactive”.

With N#Cc1cccc(NC(=O)N2CC[C@@]3(CCCN(S(=O)(=O)c4ccccc4)C3)C2)c1 as the molecule, how does the Potency read?
The Potency was “inactive”.

With COC(=O)C1C(=O)CC(C)(O)C(C(=O)OC)C1/C=C/c1ccccc1 (stereo unspecified) as the molecule, how does the Potency read?
Its Potency is inconclusive: 0.316 µM [inhibitor, full curve, poor fit].

CC(C)(C)c1ccc(C2C3=C(CCCC3=O)NC3=C2C(=O)c2ccccc23)cc1 (stereo unspecified) was tested. Which Potency did it give?
Its Potency is inconclusive: 25.1 µM [inhibitor, single point].

For COc1ccc(C)cc1NCc1cccc(OC)c1OC, which Potency is on record?
The Potency was inconclusive: 31.6 µM [inhibitor, single point].

Cc1ccc(/C=C2/SC(=S)N(CC(=O)Nc3ncc(Cc4ccc(C)cc4)s3)C2=O)cc1 was tested. Which Potency did it give?
Its Potency is inconclusive: 15.8 µM [inhibitor, partial curve].

How did the Potency turn out when Nc1nc(-c2ccco2)c(-c2ccco2)s1 was run?
The Potency was “inactive”.

How did the Potency turn out when CCCC(NC(C)C(=O)N1C(C(=O)O)CC2CCCCC21)C(=O)OCC (stereo unspecified) was run?
The Potency was “inactive”.

Which Potency does the source give for COCCCN=C(c1ccco1)n1c(=S)nc(-c2ccco2)n(CCCOC)c1=S here?
Its Potency is inconclusive: 12.6 µM [inhibitor, partial curve].

How did the Potency turn out when COC(=O)/C(=C/Nc1cccc2ccccc12)[N+](=O)[O-] was run?
The Potency was inconclusive: 6.31 µM [inhibitor, partial curve, poor fit].

Which activity change, negative = inhibition does the source give for NC([N-]/N=C/c1ccccn1)=[S]=[Fe].O=S(=O)(O)O here?
The activity change, negative = inhibition was inactive: -13.4% [at 11.4 µM].
